According to the supplement of paper PMC12217912:
The list shows a part of the results. Sequences were assembled here from the parent chain. Inactive controls read about 0.05.

B1: TEV protease; numbered along this chain (parent)
chain: MGESLFKGPRDYNPISSSICHLTNESDGHTTSLYGIGFGPFIITNKHLFRRNNGTLVVQSLHGVFKVKDTTTLQQHLVDGRDMIIIRMPKDFPPFPQKLKFREPQREERICLVTTNFQTKSMSSMVSDTSCTFPSGDGIFWKHWIQTKDGQCGSPLVSTRDGFIVGIHSASNFTNTNNYFTSVPKNFMELLTNQEAQQWVSGWRLNADSVLWGGHKVFMVKPEEPFQPVKEATQL

Variants of: B1
Experiment: raw area under fraction-flipped curve 0-4 h after induction (AUC4h, not background-subtracted), DNA-recorder readout of cleavage of the substrate (dimensionless); higher = more cleavage of the substrate by the protease variant
Conditions: temperature: 34 °C; time window: 0-4 h after rhamnose induction
Protocol: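 In vivo DNA recorder in E. coli TOP10(DE3) ΔrhaA at 34 °C. Each TEVp single-site mutant (parent TEVp 0) is paired with a single-site variant of the 7-mer TEVs (canonical ENLYFQ|S). The substrate sits between flexible linkers in a Bxb1-sfGFP-TEVs-SsrA fusion, so cleavage stabilises Bxb1 and speeds flipping of a recombination array, read by NGS. The value is the raw area under the fraction-flipped curve over 0-4 h after rhamnose induction (AUC4h), with ≥20 reads per time point. It is not background-subtracted; inactive controls average about 0.047.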
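Further: Bxb1 expression induced with 0.2% (w/v) L-rhamnose at OD600 near 0.5, cultures sampled hourly, flipped fraction per protease–substrate barcode pair counted by paired-end Illumina sequencing.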

Variant | area with substrate ENAYFQS | area with substrate ENCYFQS | area with substrate ENDYFQS | area with substrate ENEYFQS | area with substrate ENFYFQS | area with substrate ENGYFQS | area with substrate ENHYFQS | area with substrate ENIYFQS | area with substrate ENKYFQS | area with substrate ENMYFQS | area with substrate ENNYFQS | area with substrate ENPYFQS | area with substrate ENQYFQS | area with substrate ENRYFQS | area with substrate ENSYFQS | area with substrate ENVYFQS | area with substrate ENYYFQS | area with substrate ENTYFQS | area with substrate ENWYFQS
H21I | 0.0473 | 0.0623 | 0.0645 | 0.0641 | 0.0602 | 0.0627 | 0.0581 | 0.0771 | 0.053 | 0.071 | 0.0577 | 0.0544 | 0.0584 | 0.0607 | 0.0698 | 0.0652 | 0.0524 |  | 
H21F | 0.0575 | 0.0672 | 0.0528 | 0.0684 | 0.0664 | 0.0627 | 0.0638 | 0.0994 |  | 0.0662 | 0.0536 |  | 0.0593 | 0.0705 | 0.0263 |  |  | 0.0516 | 
N24G | 0.0638 | 0.0596 | 0.0625 | 0.0661 | 0.0542 | 0.0628 | 0.0648 | 0.114 | 0.0649 |  | 0.0625 | 0.0643 | 0.0586 | 0.0569 | 0.0591 | 0.0543 | 0.0643 | 0.0609 | 0.0513
N24A | 0.0814 | 0.0599 | 0.0593 | 0.0609 | 0.0519 | 0.0532 | 0.059 |  | 0.0656 | 0.0736 | 0.0592 | 0.0636 | 0.0594 | 0.0552 | 0.0644 | 0.0681 |  | 0.0485 | 
N24F | 0.0649 | 0.0636 | 0.0632 | 0.0617 | 0.0728 | 0.0493 | 0.0586 |  |  |  |  |  | 0.0681 |  | 0.0633 |  |  | 0.0317 | 0.0642
N24V | 0.0654 | 0.0653 | 0.0537 | 0.0619 | 0.0573 | 0.0629 | 0.0661 |  | 0.0677 | 0.068 | 0.0601 | 0.057 | 0.0603 | 0.0596 | 0.0647 | 0.0683 |  | 0.0637 | 
N24P | 0.0406 | 0.055 | 0.06 | 0.0572 | 0.0466 | 0.0677 | 0.0545 | 0.0532 | 0.0709 | 0.0493 | 0.0588 | 0.0528 | 0.0534 | 0.05 | 0.0592 | 0.0533 | 0.0517 | 0.066 | 
N24S | 0.0512 |  | 0.0556 | 0.0621 |  | 0.0495 | 0.0904 |  | 0.054 | 0.0783 | 0.0688 | 0.0301 | 0.074 |  | 0.0966 | 0.0677 | 0.0481 | 0.0612 | 0.0636
L33S | 0.0495 | 0.0782 | 0.0584 | 0.0563 | 0.0483 | 0.0498 |  | 0.0809 | 0.0533 | 0.0643 | 0.0579 | 0.0616 | 0.0596 | 0.0561 | 0.0538 | 0.0652 |  | 0.0576 | 
L33K | 0.0621 | 0.0518 | 0.0501 | 0.0625 | 0.0627 |  |  |  |  |  |  |  | 0.0483 |  | 0.0595 |  | 0.0597 | 0.0564 | 
S4L | 0.056 | 0.0685 | 0.0623 | 0.0624 | 0.0575 | 0.0666 | 0.0639 | 0.0671 | 0.0479 | 0.0728 | 0.0636 | 0.0625 | 0.0613 | 0.0544 | 0.0641 | 0.0647 | 0.0602 | 0.069 | 
Y34L | 0.0698 | 0.0732 | 0.0444 |  |  |  | 0.0481 | 0.0962 |  |  | 0.0536 | 0.0623 |  |  |  |  |  | 0.0519 | 
T23G | 0.0367 | 0.05 | 0.0594 | 0.0575 | 0.0533 | 0.0705 | 0.0602 | 0.0835 |  |  | 0.0663 | 0.0477 | 0.0557 | 0.0632 | 0.0557 | 0.0775 |  | 0.0556 | 0.0511
T23W | 0.0599 | 0.06 | 0.0586 | 0.0654 | 0.0628 | 0.0644 | 0.0566 | 0.0448 | 0.063 | 0.0783 | 0.0655 | 0.059 | 0.0489 | 0.0636 | 0.0672 | 0.0729 | 0.0616 | 0.0569 | 0.0529
E25C | 0.0499 | 0.0695 | 0.055 | 0.057 | 0.0618 | 0.055 | 0.0441 | 0.141 |  | 0.0745 | 0.0556 | 0.0485 | 0.05 | 0.0718 | 0.0582 | 0.0798 | 0.0601 | 0.0647 | 0.0052
E25I | 0.0631 | 0.0609 | 0.0577 |  | 0.0566 | 0.0883 | 0.0529 | 0.0822 |  |  | 0.0613 |  | 0.0545 | 0.0585 | 0.0585 | 0.0763 |  | 0.0153 | 0.0562
G8M | 0.0485 | 0.0673 | 0.0563 |  |  |  |  |  | 0.0741 |  | 0.0581 |  | 0.0458 | 0.0575 |  |  |  |  | 
G8W | 0.0688 | 0.0616 | 0.0534 | 0.0612 | 0.0613 | 0.066 |  | 0.087 | 0.0587 |  |  |  | 0.0618 | 0.0592 | 0.0832 | 0.078 |  | 0.0682 | 
S32V | 0.0616 | 0.0619 | 0.068 | 0.0563 | 0.0605 | 0.0675 | 0.0604 | 0.0862 | 0.0593 | 0.0724 | 0.058 |  | 0.0713 | 0.0527 | 0.0659 | 0.0687 | 0.0644 | 0.0683 | 0.0072
S32C | 0.0659 | 0.0657 | 0.0532 | 0.0567 | 0.0738 | 0.0639 | 0.0505 | 0.0816 | 0.0478 | 0.0644 | 0.0511 |  | 0.0622 | 0.0463 | 0.0582 | 0.0815 | 0.0511 | 0.0638 | 
S32T | 0.0615 | 0.0615 | 0.0645 | 0.067 | 0.0779 |  |  | 0.115 |  | 0.0797 | 0.0539 | 0.0699 | 0.0408 |  | 0.0729 | 0.0957 | 0.054 | 0.0578 | 0.0655
S32K | 0.0364 |  | 0.0648 | 0.0461 | 0.0482 |  |  |  |  | 0.0841 | 0.0571 |  | 0.0639 |  | 0.0629 | 0.063 | 0.04 | 0.0626 | 0.0486
S32F | 0.0575 |  | 0.0531 | 0.0636 | 0.0587 | 0.0716 | 0.0597 | 0.101 | 0.067 |  |  | 0.0503 | 0.0551 | 0.0396 | 0.0617 | 0.0708 |  | 0.0557 | 0.0587
